Reference: PubChem BioAssay AID463173 (ICCB-Longwood Screening Facility, Harvard Medical School, 2010)
Hit rate of the full screen: of about 52,000 compounds, about 4,300 (8.3%) were called active. Rule as the data show it: active = survival mostly below about 52% (no sharp cut-off); inactive = mostly above about 56%. This is one part of the list.

Test system: DeltatarO mutant
Test: S. aureus survival, RN4220 and DeltatarO strains – OD600, teichoic acid synthesis inhibitors, primary screen (AID 463173)
Details: S. aureus RN4220 wild type/DeltatarO growth, OD600, 18 h, active compounds read low, screened at 18.75 µg/mL (by protocol)

Row | SMILES | survival
1 | O=C(CSc1ccc(-c2ccccc2)nn1)N1CCCC1 | inactive: 92%
2 | COc1cc(NC(=O)c2nnn(Cc3ccc(F)cc3)c2N)cc(OC)c1 | inactive: 67%
3 | Cc1ccccc1C(=O)N1CCC(c2nc3ccccc3s2)CC1 | inactive: 75%
4 | CCOc1ccc(CCNC(=O)c2ccc3c(c2)c(C)c(C)n3C)cc1 | inactive: 77%
5 | COC(=O)c1ccc(NC(=O)CSc2nc(=O)n(Cc3ccco3)c3c2CCC3)cc1 | inactive: 113%
6 | COc1cccc(CNc2cccc3cccnc23)c1O | inactive: 97%
7 | COc1cc(C(=O)N(Cc2ccc(C(C)C)cc2)C2CCS(=O)(=O)C2)cc(OC)c1OC (stereo not given) | active: 46%
8 | COC(=O)CSc1nc(-c2ccccc2)cc(C)c1C#N | inactive: 90%
9 | Cc1cc(NC(=O)CN2C(=O)C(C)(C)c3ccccc32)ccc1Br | inactive: 88%
10 | Cc1cccc(OCC(=O)Nc2ccc(S(N)(=O)=O)cc2)c1C | inactive: 93%
11 | CCN(C(=O)CSc1nc2ccccc2n1CC(=O)Nc1cccc(C#N)c1)c1ccccc1 | inactive: 122%
12 | Cc1ccc(CNC(=O)CC2Oc3ccccc3NC2=O)cc1 (stereo not given) | inactive: 86%
13 | COc1cc(C(=O)N2CCCN(c3nc4cc(C)ccc4cc3C#N)CC2)cc(OC)c1OC | inactive: 91%
14 | CCOC(=O)C1CCCN(C(=O)Cn2ncc3c([nH]c4ccccc43)c2=O)C1 (stereo not given) | inactive: 83%
15 | COC(=O)CC(=O)CSc1nc(C)cc(C(F)(F)F)c1C#N | inactive: 83%
16 | CCC(=O)N1CCc2cc(Br)cc(S(=O)(=O)NCCc3ccc(OC)c(OC)c3)c21 | inactive: 52%
17 | O=C(NCCCc1nc2ccccc2n1Cc1ccccc1Cl)C1CCCCC1 | inactive: 80%
18 | Cc1[nH]n2c(=O)cc(-c3ccccc3Cl)nc2c1-c1ccccc1 | active: -3%
19 | N#CCCSCc1ccc(C(=O)O)o1 | inactive: 112%
20 | CCn1c(SCc2ccccc2)nnc1-c1nonc1NC(C)=O | inactive: 107%
21 | Cc1ccccc1CNC(=O)c1ccc(NC(=O)c2nsc3ccccc23)cc1 | inactive: 84%
22 | CCn1c(=O)cc(SCC(=O)Nc2ccc(C)c(F)c2)c2ccccc21 | inactive: 89%
23 | O=C(Cn1c(=O)oc2cc(S(=O)(=O)N3CCCCCC3)ccc21)Nc1cccc(C(F)(F)F)c1 | inactive: 84%

Row | SMILES | survival
24 | O=C1Cc2cc(S(=O)(=O)N3CCN(c4ccccc4)CC3)ccc2N1 | inactive: 81%
25 | Cc1ccccc1Nc1sc(C(=O)c2ccc3c(c2)OCO3)c(N)c1S(=O)(=O)c1ccccc1 | inactive: 78%
26 | O=S1(=O)N=C(N(Cc2ccco2)c2ccc(O)cc2)c2ccccc21 | inactive: 115%
27 | Cc1ccc(N2CC3=C(C2=O)C(c2ccc(Br)cc2)NC(=O)N3C)cc1 (stereo not given) | inactive: 74%
28 | CC(C)c1ccc(NS(=O)(=O)c2ccc3[nH]cc(C(=O)NC4CCCC4)c(=O)c3c2)cc1 | active: 4%
29 | CCCn1ccc2c(OCC(=O)Nc3ccc(C(F)(F)F)cc3)cccc2c1=O | inactive: 75%
30 | O=C(Nc1ccc(Cl)c(C(F)(F)F)c1)c1cc2nc(-c3ccc4c(c3)OCO4)cc(C(F)(F)F)n2n1 | inactive: 75%
31 | CCC(O)c1nc2ccccc2n1CCOc1cc(C)cc(C)c1 (stereo not given) | inactive: 100%
32 | COc1ccc(NC(=O)CSc2n[nH]c(-c3ccccc3)n2)cc1Cl | inactive: 88%
33 | O=C(Nc1ccccc1F)c1oc2ccccc2c1NC(=O)C12CC3CC(CC(C3)C1)C2 | inactive: 126%
34 | CCOc1ccccc1C(=O)Nc1cc2c(cc1N1CCCCC1)n(C)c(=O)n2C | inactive: 65%
35 | N#C/C(=C\c1ccccc1F)c1nc2ccccc2c(=O)[nH]1 | inactive: 66%
36 | c1ccc(Cc2[nH]nc3ccccc23)cc1 | inactive: 89%
37 | O=C(O)CCC(=O)Nc1ccc(N2CCCCC2)c(C(=O)O)c1 | inactive: 103%
38 | Cc1cc(C)cc(NS(=O)(=O)c2ccc3[nH]cc(C(=O)NCc4ccco4)c(=O)c3c2)c1 | inactive: 58%
39 | CC(=O)c1ccc(NC(=O)CN2C(=O)CCc3cc(S(=O)(=O)N4CCC(C)CC4)ccc32)cc1 | inactive: 87%
40 | COc1cccc(NC(=O)CCc2nnc3n(CC(C)C)c(=O)c4ccccc4n23)c1 | inactive: 99%
41 | O=C(/C=C/c1ccccc1)Nc1nc(-c2cccs2)ns1 | inactive: 71%
42 | Cc1ccc(OCC(=O)Nc2ccccc2C(=O)OCc2cc(=O)n3c(C)csc3n2)cc1 | inactive: 89%
43 | CC(C)OC(=O)c1c(NC(=O)c2cc3nc(-c4ccccc4)cc(C(F)(F)F)n3n2)sc2c1CCCC2 | inactive: 92%
44 | Cc1ccc(-c2nnc3ccccc3c2C(=O)Nc2cccc(C(F)(F)F)c2)cc1 | inactive: 98%
45 | CSc1nnc2c(n1)OC(c1cccc(O)c1Cl)Nc1ccccc1-2 (stereo not given) | inactive: 73%
46 | CC1=C(C(=O)Nc2ccc(C)cc2C)C(c2ccc[nH]2)n2ncnc2N1 (stereo not given) | inactive: 89%

Row | SMILES | survival
47 | CC(C(=O)NCc1ccc(Cl)cc1)n1ccc2cc(S(=O)(=O)N3CCCC3)ccc21 (stereo not given) | inactive: 66%
48 | N#Cc1cc2c(=O)n3ccccc3nc2n(-c2nnc(SCc3ccccc3F)s2)c1=O | inactive: 81%
49 | N#CC1=C(N)SC(N)=C(C#N)C1c1cccs1 | inactive: 105%
50 | COC(=O)N1N=C(C)CC1(O)c1ccc(Cl)cc1 (stereo not given) | inactive: 87%
51 | CCOC(=O)c1noc2nc(C)n(CC(=O)Nc3ccc(Br)cc3C)c(=O)c12 | inactive: 128%
52 | COc1ccc(OC)c(-n2cnc3cc(C(=O)NCCc4ccccc4)ccc32)c1 | inactive: 88%
53 | COC(CNS(=O)(=O)c1ccc(S(=O)(=O)NCc2ccccc2)cc1)OC | inactive: 71%
54 | Cc1cc(Nc2cccc(C(F)(F)F)c2)nc2ccc(NC(=O)c3cncc(Br)c3)cc12 | inactive: 118%
55 | Cc1ccc(CN(C(=O)c2ccc([N+](=O)[O-])cc2)c2ccccn2)cc1 | inactive: 52%
56 | CCOc1ccc(-n2c(=O)c3sc4ccccc4c3n(Cc3ccc(F)cc3)c2=O)cc1 | inactive: 77%
57 | Cc1ccc(NC(=O)c2ccc(CN3CC(=O)N4CCCCC4C3=O)cc2)cc1C (stereo not given) | inactive: 77%
58 | CCc1ccccc1NC(=O)C(=O)NCCc1sc(-c2cccc(C)c2)nc1C | inactive: 92%
59 | CCCCC(CC)Cn1c(Oc2ccccc2)nc2c1c(=O)n(C)c(=O)n2C (stereo not given) | active: -15%
60 | CCn1c(=S)sc2nc(C)sc21 | inactive: 69%
61 | CC(C)c1cnc2c(c1SCC(=O)Nc1cccc([N+](=O)[O-])c1)c(=O)n(C)c(=O)n2C | inactive: 69%
62 | CCn1c(SCC(=O)Nc2ccc(C)c(C)c2)nnc1-c1nonc1NC(C)=O | inactive: 110%
63 | COCCCNc1ncnc2c1nnn2C | inactive: 84%
64 | Cc1ccc(Cl)cc1N1CCN(S(=O)(=O)c2ccc3c(c2)CC(=O)N3C)CC1 | inactive: 97%
65 | Cc1cccc(-c2cc3nc4c(c(N5CCCC5)n3n2)CCCC4)c1 | inactive: 123%
66 | COc1cc(-c2nnc(SCC(=O)Nc3cccc(C#N)c3)o2)cc(OC)c1OC | inactive: 110%
67 | CCOC(=O)C1CCCN(S(=O)(=O)c2ccc3c(c2)N(C)C(=O)CC(=O)N3C)C1 (stereo not given) | inactive: 106%
68 | CCc1ccc(CNC(=O)c2cnc3sc(N(CC)CC)nn3c2=O)cc1 | inactive: 67%
69 | COc1ccc(CCNC(=O)CN2C(=O)COc3ccc(S(=O)(=O)N4CCCCCC4)cc32)cc1OC | inactive: 78%

Row | SMILES | survival
70 | COCCCNC(=O)Cn1c(=O)n(-c2ccc(Cl)cc2)c(=O)c2c3c(sc21)CCCCC3 | inactive: 87%
71 | O=S(=O)(c1cccc(Cl)c1)c1nnn2c1nc(NC1CCCC1)c1sccc12 | inactive: 62%
72 | CCc1ccc(CNC(=O)c2cc3c(s2)-c2ccccc2OC3)cc1 | inactive: 61%
73 | Cc1nc(N2CCCC2)ncc1C(=O)NCc1ccccc1Cl | inactive: 95%
74 | CCc1nnc2n1N(C(C)=O)C(c1ccc(C(C)(C)C)cc1)=C(C(C)=O)S2 | inactive: 96%
75 | COc1cc(NC(=O)CSc2nc3nc(C)c(Cc4ccccc4)c(C)n3n2)cc(OC)c1OC | inactive: 80%
76 | COC(=O)c1ccc(NC(=O)C2CCN(S(=O)(=O)c3ccc4c(c3)CCCN4C(C)=O)CC2)cc1 | inactive: 99%
77 | COC(=O)C1CCCc2c1[nH]c1ccc(Cl)cc21 (stereo not given) | inactive: 60%
78 | CCOC(=O)c1cc2c(=O)n3ccccc3nc2n(CC2CCCO2)c1=NC(=O)c1cc(C)cc(C)c1 (stereo not given) | active: 44%
79 | CC1(C)CC(NC(=O)NCc2ccc3c(c2)OCO3)CC(C)(CNC(=O)NCc2ccc3c(c2)OCO3)C1 (stereo not given) | inactive: 78%
80 | COc1ccc(CC(=O)Nc2sc3c(c2C(=O)Nc2ccc(C)cc2)CCCCC3)cc1 | inactive: 131%
81 | CCc1cccc(C)c1Nc1c(-c2cccc(O)c2)nc2sccn12 | inactive: 105%
82 | Cc1[nH]c2ccccc2c1C1(O)C(=O)N(Cc2ccc(Cl)cc2)c2ccccc21 (stereo not given) | active: 29%
83 | Cc1cc(S(=O)(=O)NCCC2=CCCCC2)ccc1-n1cnnn1 | inactive: 70%
84 | Cc1ccc(N(CC(=O)Nc2ccc(OC(F)(F)F)cc2)S(=O)(=O)c2c(C)noc2C)cc1 | inactive: 70%
85 | Cc1[nH]c2c(C)cccc2c1CCNC(=O)c1cc2ccccc2oc1=O | inactive: 86%
86 | Cc1ccc(O)c(NC(=O)c2nc3nc(C)cc(C(F)F)n3n2)c1 | inactive: 118%
87 | CCOc1ccc2[nH]c(=O)c(CN(C(C)=O)C3CCCC3)cc2c1 | inactive: 78%
88 | COCCn1c(SCC(=O)c2c[nH]c3ccccc23)nc2cc(C(=O)NCC(C)C)ccc2c1=O | inactive: 100%
89 | COc1cccc(N2CCN(C(=O)c3nc(-c4ccc(Cl)cc4)n4c3CCCCC4)CC2)c1 | inactive: 79%
90 | O=c1oc2ccc3ccccc3c2cc1-c1nnc(Nc2cc(C(F)(F)F)ccc2Cl)s1 | inactive: 95%
